# Measured values: the supplement of paper PMC8728848
# The list shows a part of the results.
# What was measured:
# Assay in all cases: glycan array binding signal (z-score within array); higher = stronger binding
# Details in all cases: glycan notation: IUPAC condensed, linker removed
# [1] = biological target: GalNAc(b1-4)GlcNAc
# Summary of the method: (§1)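 The binding signal is a Z-score computed within each array. Data were drawn from 3228 arrays in the Consortium for Functional Glycomics database, restricted to those with a known protein sequence. Scores were averaged over arrays of the same protein sequence at different concentrations or buffers, and over linkers, and negative values can be taken as non-binding.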
# [2] = biological target: GalNAc(b1-4)GlcNAc(b1-2)Man
# Summary of the method: as §1
# [3] = biological target: GalNAc(b1-4)GlcNAc(b1-2)Man(a1-3)[GalNAc(b1-4)GlcNAc(b1-2)Man(a1-6)]Man(b1-4)GlcNAc(b1-4)GlcNAc
# Summary of the method: as §1
# [4] = biological target: GalNAc(b1-4)GlcNAc(b1-3)GalNAc(b1-4)GlcNAc
# Summary of the method: as §1
# [5] = biological target: GalNAc(b1-4)GlcNAc6S
# Summary of the method: as §1
# [6] = biological target: GalNAc(b1-6)GalNAc
# Summary of the method: as §1
# [7] = biological target: GalNAc3S(b1-4)GlcNAc
# Summary of the method: as §1
# [8] = biological target: GalNAc3S(b1-4)GlcNAc3S
# Summary of the method: as §1
# [9] = biological target: GalNAc3S(b1-4)[Fuc(a1-3)]GlcNAc
# Summary of the method: as §1
# [10] = biological target: GalNAc4S6S(b1-4)GlcNAc
# Summary of the method: as §1
# [11] = biological target: GalNAc6S(b1-4)GlcNAc
# Summary of the method: as §1
# [12] = biological target: Glc(a1-4)Glc
# Summary of the method: as §1
# [13] = biological target: Glc(a1-4)Glc(a1-4)Glc(a1-4)Glc
# Summary of the method: as §1
# [14] = biological target: Glc(a1-6)Glc(a1-6)Glc
# Summary of the method: as §1
# [15] = biological target: Glc(a1-6)Glc(a1-6)Glc(a1-6)Glc
# Summary of the method: as §1
# [16] = biological target: Glc(b1-4)Glc
# Summary of the method: as §1
# [17] = biological target: Glc(b1-6)Glc
# Summary of the method: as §1
# [18] = biological target: GlcA(b1-3)Gal
# Summary of the method: as §1
# [19] = biological target: GlcA(b1-3)GlcNAc
# Summary of the method: as §1
# [20] = biological target: GlcA(b1-6)Gal
# Summary of the method: as §1
# [21] = biological target: GlcA3S(b1-3)Gal(b1-4)GlcNAc(b1-2)Man
# Summary of the method: as §1
# [22] = biological target: GlcA3S(b1-3)Gal(b1-4)GlcNAc(b1-3)Gal(b1-4)Glc
# Summary of the method: as §1
# [23] = biological target: GlcNAc(a1-3)Gal(b1-4)GlcNAc
# Summary of the method: as §1
# [24] = biological target: GlcNAc(a1-4)Gal(b1-3)GlcNAc
# Summary of the method: as §1
# [25] = biological target: GlcNAc(a1-4)Gal(b1-4)GalNAc
# Summary of the method: as §1
# [26] = biological target: GlcNAc(a1-4)Gal(b1-4)GlcNAc
# Summary of the method: as §1
# [27] = biological target: GlcNAc(a1-4)Gal(b1-4)GlcNAc(b1-3)Gal(b1-4)Glc
# Summary of the method: as §1
# [28] = biological target: GlcNAc(a1-4)Gal(b1-4)GlcNAc(b1-3)Gal(b1-4)GlcNAc
# Summary of the method: as §1
# [29] = biological target: GlcNAc(a1-4)Gal(b1-4)GlcNAc(b1-3)Gal(b1-4)GlcNAc(b1-3)Gal(b1-4)GlcNAc
# Summary of the method: as §1
# [30] = biological target: GlcNAc(a1-4)Gal(b1-4)GlcNAc(b1-3)Gal(b1-4)[Fuc(a1-3)]GlcNAc(b1-3)Gal(b1-4)[Fuc(a1-3)]GlcNAc
# Summary of the method: as §1
# [31] = biological target: GlcNAc(a1-6)Gal(b1-4)GlcNAc
# Summary of the method: as §1
# [32] = biological target: GlcNAc(b1-2)Gal(b1-3)GalNAc
# Summary of the method: as §1
# [33] = biological target: GlcNAc(b1-2)Man(a1-3)[GlcNAc(b1-2)Man(a1-6)]Man(b1-4)GlcNAc(b1-4)GlcNAc
# Summary of the method: as §1
# [34] = biological target: GlcNAc(b1-2)Man(a1-3)[GlcNAc(b1-2)Man(a1-6)]Man(b1-4)GlcNAc(b1-4)[Fuc(a1-6)]GlcNAc
# Summary of the method: as §1
# [35] = biological target: GlcNAc(b1-2)Man(a1-3)[GlcNAc(b1-4)][GlcNAc(b1-2)Man(a1-6)]Man(b1-4)GlcNAc(b1-4)GlcNAc
# Summary of the method: as §1
# [36] = biological target: GlcNAc(b1-2)Man(a1-3)[GlcNAc(b1-4)][GlcNAc(b1-2)Man(a1-6)]Man(b1-4)GlcNAc(b1-4)[Fuc(a1-6)]GlcNAc
# Summary of the method: as §1
# [37] = biological target: GlcNAc(b1-2)[GlcNAc(b1-4)]Man(a1-3)[GlcNAc(b1-2)Man(a1-6)]Man(b1-4)GlcNAc(b1-4)GlcNAc
# Summary of the method: as §1
binder,measurement,setting,value
DC-ASGPR-short (Homo sapiens) (protein) MTRTYENFQYLENKVKVQGFKNGPLPLQSLLQRLRSGPCHLLLSLGLGLLLLVIICVVGFQNSKFQRDLVTLRTDFSNFTSNTVAEIQALTSQGSSLEETIASLKAEVEGFKQERQAVHSEMLLRVQQLVQDLKKLTCQVATLNNNASTEGTCCPVNWVEHQDSCYWFSHSGMSWAEAEKYCQLKNAHLVVINSREEQNFVQKYLGSAYTWMGLSDPEGAWKWVDGTDYATGFQNWKPGQPDDWQGHGLGGGEDCAHFHPDGRWNDDVCQRPYHWVCEAGLGQTSQESH,glycan array binding signal (z-score),[1],4.38
same,glycan array binding signal (z-score),[2],3.01
same,glycan array binding signal (z-score),[3],1.98
same,glycan array binding signal (z-score),[4],4.52
same,glycan array binding signal (z-score),[5],4.1
same,glycan array binding signal (z-score),[6],-0.274
same,glycan array binding signal (z-score),[7],-0.273
same,glycan array binding signal (z-score),[8],-0.272
same,glycan array binding signal (z-score),[9],-0.256
same,glycan array binding signal (z-score),[10],-0.269
same,glycan array binding signal (z-score),[11],2.27
same,glycan array binding signal (z-score),[12],-0.277
same,glycan array binding signal (z-score),[13],-0.27
same,glycan array binding signal (z-score),[14],-0.277
same,glycan array binding signal (z-score),[15],-0.255
same,glycan array binding signal (z-score),[16],-0.286
same,glycan array binding signal (z-score),[17],-0.285
same,glycan array binding signal (z-score),[18],-0.272
same,glycan array binding signal (z-score),[19],-0.28
same,glycan array binding signal (z-score),[20],-0.263
same,glycan array binding signal (z-score),[21],-0.279
same,glycan array binding signal (z-score),[22],-0.268
same,glycan array binding signal (z-score),[23],-0.279
same,glycan array binding signal (z-score),[24],-0.287
same,glycan array binding signal (z-score),[25],-0.281
same,glycan array binding signal (z-score),[26],-0.273
same,glycan array binding signal (z-score),[27],-0.272
same,glycan array binding signal (z-score),[28],-0.267
same,glycan array binding signal (z-score),[29],-0.287
same,glycan array binding signal (z-score),[30],-0.266
same,glycan array binding signal (z-score),[31],-0.28
same,glycan array binding signal (z-score),[32],-0.279
same,glycan array binding signal (z-score),[33],-0.281
same,glycan array binding signal (z-score),[34],-0.291
same,glycan array binding signal (z-score),[35],-0.277
same,glycan array binding signal (z-score),[36],-0.283
same,glycan array binding signal (z-score),[37],-0.273
